The results in this text go back to PubChem BioAssay AID1346428 (National Center for Advancing Translational Sciences (NCATS), 2018).

Several values for one entry are separate records, joined by “and”; a condition that tells them apart may be missing. Equal entries are not always repeated. In all, about 48,000 compounds went through this assay and about 1,200 (2.5%) were called active. Another 2% or so got no clear call; they are omitted.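 How the source made its calls: active means activation of at least 60% and not above a set upper limit (about 1 call in 100 departs from these limits); inconclusive means activation of 40% to 60%, or above that upper limit; inactive means activation under 40%.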 The list shows a part of the results.

Sequence of UniProt O75388 (O75388 whole entry, looked up): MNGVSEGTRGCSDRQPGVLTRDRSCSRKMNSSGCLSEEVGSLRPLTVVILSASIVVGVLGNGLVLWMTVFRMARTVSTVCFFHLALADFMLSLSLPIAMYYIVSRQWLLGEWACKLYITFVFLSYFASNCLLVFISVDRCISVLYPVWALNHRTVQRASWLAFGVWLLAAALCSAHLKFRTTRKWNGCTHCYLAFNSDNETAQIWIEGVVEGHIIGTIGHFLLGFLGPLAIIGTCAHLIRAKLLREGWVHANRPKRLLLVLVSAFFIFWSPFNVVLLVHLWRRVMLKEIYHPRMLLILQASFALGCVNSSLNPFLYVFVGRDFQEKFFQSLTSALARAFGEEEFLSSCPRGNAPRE

The target of the experiment is Probable G-protein coupled receptor 32 (Homo sapiens) (UniProt O75388). Briefly: qHTS for Agonists of Human Resolvin D1 Receptor DRV1. Further: 0% is about no effect. Conditions: CHO-K1 GPR32 beta-arrestin PathHunter luminescence, 90 min; at 76.9 µM; stronger effect = higher value; zero percent set by DMSO-only wells. Summed up:
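Readings come from a cell-based beta-arrestin complementation format: CHO-K1 GPR32 stable cells (2,500/well) treated 90 min with compounds, then beta-Gal substrate added for 1 h before chemiluminescence imaging.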
In general terms: In qHTS, concentration-response curves come from the screen itself.
Regarding `CCc1ccccc1NC(=O)c1c(NC(=O)c2ccccc2)sc2c1CCCC2`, the activation was inactive: -0.352%.

With `CCc1ccc(C(=O)c2cn(CC(=O)Nc3ccc4c(c3)OCO4)c3cc(OC)c(OC)cc3c2=O)cc1`, the activation was inactive: 39.7%.

As to `CCOC(=O)C1CCC(CN(Cc2cccc(Br)c2)S(=O)(=O)c2ccc(C)cc2)CC1` (centres undefined), the activation was inactive: -7.22%.

Take `COc1ccc(S(=O)(=O)Nc2ccc3c(c2)N(C(C)=O)CCC3)cc1F`: the activation was inactive: -5.67%.

`COc1cc(Cl)c(NC(=O)CCS(=O)(=O)c2cc3c(cc2Cl)NC(=O)CO3)c(OC)c1`: the activation was inactive: 39.3%.

On to `COc1cc(-c2cc(OC)c3c(C)oc(C)c3c(=O)c2)ccc1OC(=O)c1ccccc1Cl`, for which the activation was inactive: -23.3%.

`COc1ccc(OC)c2sc(N3CCN(C(=O)C(C)(C)C)CC3)nc12`: the activation was inactive: 9.03%.

Turning to `CCOC(=O)C1=C(CN2CCC(C)CC2)NC(=O)NC1c1ccc(F)cc1` (centres undefined), the activation was inactive: -6.71%.

Turning to `Cc1cccc(Oc2nc3c(C)cccn3c(=O)c2/C=C(\C#N)c2nc3ccccc3[nH]2)c1`, the activation is inactive: 21.1%.

`Cc1ccc2nc(N3CCN(c4cccc(Cl)c4)CC3)c(-n3nc(C)cc3C)nc2c1`: the activation is inactive: -19.6%.

As for `Cc1ccc(-c2cc3ncc4c(n3n2)-c2cc(C)ccc2OC4)cc1`, the activation was inactive: -7.43%.

Turning to `Cc1cc(C)c2c(=O)cc(CSCC(=O)Nc3ccccc3Cl)[nH]c2c1`, the activation is inactive: 31.9%.

Consider `COc1ccc(CNC(=O)c2ccc(N3CCCC3)c(NC(=O)NCc3ccc(F)cc3)c2)cc1`, for which the activation was inactive: -17%.

As for `COCCCNC(=O)c1ccc(NC(=O)c2nsc3ccccc23)cc1`, the activation was inactive: -7.56%.

`COc1ccccc1CNC(=O)C1CCC(CNS(=O)(=O)c2ccc3c(c2)CCCC(=O)N3)CC1` (centres undefined): the activation was inactive: -15.2%.

For `Cc1ccc(N2C(=O)CSC23C(=O)N(CC(=O)NCc2ccccc2)c2ccccc23)cc1C` (centres undefined), the activation is inactive: -18.6%.

As to `Cc1cccc(C)c1OCC(=O)NCC1(N(C)C)CCCCC1`, the activation is inactive: -14.8%.

As to `CNC(=O)c1c(NC(=O)c2ccc(S(=O)(=O)N3CCC(C)CC3)cc2)sc2c1CCC2`, the activation was inactive: -18.5%.

On to `CS(=O)(=O)c1ccc(-c2nnc(NC(=O)c3ccc4c(c3)OCCO4)o2)cc1`, for which the activation is inactive: -39.2%.

In the case of `COc1ccc(CNS(=O)(=O)c2cnc(N)nc2)c(OC)c1`, the activation is inactive: -3.26%.

For the molecule `CCN(CC)CCNC(=O)c1ccc(Cn2c(SCc3ccccc3)nc3cccnc32)cc1`, the activation is inactive: -4.5%.

As for `Cc1ccc2c(Sc3ccc(Cl)cc3)c(C(=O)N3CCC(C)CC3)[nH]c2c1`, the activation is inactive: -30.7%.

`CCC1CN(C(=O)N2CCC(C(=O)NCCN(CC)CC)CC2)c2cc(C)ccc2O1` (centres undefined): the activation is inactive: -18.2%.

For the molecule `CC(=O)c1ccc(NC(=O)Cn2cc(S(=O)(=O)Cc3cccc(Cl)c3)c3ccccc32)cc1`, the activation was inactive: -10.9%.

With `CCOc1cc(CNC(=O)c2sc3ncnc(N(C)C4CCCCC4)c3c2C)ccc1OC`, the activation is inactive: -8.54%.

Turning to `O=C(CCc1nc(-c2cccs2)no1)Nc1cccc([N+](=O)[O-])c1`, the activation was inactive: 19.6%.

`COc1ccc(CCCc2nnc(SCC(=O)Nc3ccc(C)cc3)o2)cc1`: the activation is inactive: 35.6%.

On to `CCOc1ccc(-c2ccc(NS(=O)(=O)c3ccc(C)cc3)cc2)nn1`, for which the activation is inactive: 5.15%.

In the case of `Cc1cccn2c(=O)c(/C=C(\C#N)c3nc4ccccc4[nH]3)c(Oc3ccc(C(C)(C)C)cc3)nc12`, the activation is inactive: 10.9%.

As to `Cc1ccc(C)c(N2CCN(C(c3ccccc3)c3nnc(-c4ccccc4F)o3)CC2)c1` (centres undefined), the activation was inactive: -27.7%.

`Cc1ccc(C(=O)Nc2sc3c(c2C(=O)NCc2ccco2)CCC(C(C)(C)C)C3)cc1` (centres undefined): the activation is inactive: 6.57%.

Take `O=C(NCc1ccc(F)cc1)c1cc2n(n1)CCCN(Cc1ccc(F)cc1)C2=O`: the activation is inactive: 30.8%.

Regarding `Cc1ccc(OCC(=O)OCc2cc(=O)n3nc(-c4cccs4)sc3n2)cc1C`, the activation was inactive: 25.9%.

As for `Cc1cc(C)c(NC(=O)Cn2c(=O)n(-c3ccc(CC(=O)NCC4CCCO4)cc3)c(=O)c3ccccc32)c(C)c1` (centres undefined), the activation was inactive: -4.4%.

Consider `Cc1ccc(-c2nc3n(n2)C(=O)CC(c2ccc(Cl)cc2)S3)cc1` (centres undefined), for which the activation was inactive: 40.5%.

`Cc1cc(Cl)ccc1NC(=O)C(=O)NCc1ccco1`: the activation was inactive: 22.8%.

Consider `Cc1ccc(C(=O)Nc2ccc(NC(=O)c3cccs3)cc2)cc1C`, for which the activation was inactive: -13.9%.

Regarding `Cc1ccsc1CN(C(=O)COc1ccc(Br)cc1)C1CCS(=O)(=O)C1` (centres undefined), the activation is inactive: -20.4%.

As to `Cc1ccc(OCC(=O)Nc2cc3nn(-c4ccccc4)nc3cc2C)cc1`, the activation is inactive: 1.31%.

Regarding `CCOc1ccc(Sc2cc(C(=O)NC(C)c3ccccc3)c3ccccc3n2)cc1` (centres undefined), the activation was inactive: -16%.

For the molecule `O=C(Cn1c(=O)c2cccn2c2ccccc21)NCCc1ccccc1`, the activation was inactive: -14.7%.

In the case of `CCOc1ccccc1NC(=O)Cn1cc(C(=O)c2cccc(OC)c2)c(=O)c2ccc(C)nc21`, the activation is inactive: 1.15%.

`COc1ccccc1N1CCN(CCCCN2C(=O)c3ccccc3C2=O)CC1`: the activation was inactive: -5.44%.

With `Cc1c(CCNC(=O)c2ccc(Br)o2)sc2nc(-c3ccc(F)cc3)nn12`, the activation was inactive: 15.8%.

As for `COc1ccc2c(CNCc3cccs3)c(C(=O)O)n(Cc3ccccc3)c2c1`, the activation was inactive: 43.8%.

With `COc1ccc(NC(=O)Cn2c(SCc3cc(C)ccc3C)nc3ccncc32)c(OC)c1OC`, the activation was inactive: 3.99%.

As for `CCN1CCN(c2nc3c(S(=O)(=O)c4ccc(Br)cc4)nnn3c3ccsc23)CC1`, the activation was inactive: -4.61%.

`O=C(CSc1nnc(CNC(=O)c2cccc(F)c2)n1-c1ccccc1)Nc1ccccc1F`: the activation is inactive: -7.23%.

Regarding `Cc1ccc(NC(=O)Cn2cnc3sc(C(=O)O)c(C)c3c2=O)cc1Cl`, the activation is inactive: -0.888%.

Turning to `Cc1ccc2nc(NC(=O)COc3ccc(F)cc3)sc2c1`, the activation is inactive: -2.73%.

In the case of `CCc1cccc(NC(=O)CSC2=Nc3ccccc3N=C(c3ccc(F)cc3)C2)c1`, the activation is inactive: -20.3%.

`CCOc1ccccc1C(=O)Nc1ccc(S(=O)(=O)Nc2nc(C)cc(C)n2)cc1`: the activation is inactive: 1.78%.

Turning to `COc1cc(NC(=O)CN(c2ccc(C)cc2)S(=O)(=O)c2cccc3nonc23)cc(OC)c1`, the activation is inactive: -28.4%.

As for `COc1ccc2c(c1)c1c(c(=O)n(Cc3ccccc3)c(=O)n1CC(=O)NCc1ccccc1Cl)n2C`, the activation is inactive: 5.04%.

For `Fc1ccc(-c2noc3ncnc(NCCc4ccccc4)c23)cc1`, the activation is inactive: 19.1%.

Turning to `CCOc1ccc(-c2nonc2NC(=O)COc2c(C)cc(C)cc2C)cc1OCC`, the activation is inactive: 19%.

Take `CCCCCn1c(C(C)NC(=O)c2ccccc2)nc2ccccc21` (centres undefined): the activation was inactive: 2.67%.

For the molecule `COc1ccc(Nc2nc(-c3ccc(C)cc3)nc3ccccc23)c(OC)c1`, the activation is inactive: -0.454%.

For the molecule `CCc1nn(CC(=O)NCCc2ccc(OC)cc2OC)c(=O)c2cc3c(OC)cccc3n12`, the activation was inactive: 33.8%.

As for `CCOc1cc(CNC(=O)C2COc3ccccc3C2)cc(OCC)c1OCC` (centres undefined), the activation is inactive: -17.5%.

Take `O=C(c1ccc2c(c1)N(Cc1ccc(Cl)cc1)C(=O)c1ccccc1S2=O)N1CCOCC1` (centres undefined): the activation is inactive: -5.17%.

As for `Cc1cccc(C)c1OCC(C)N` (centres undefined), the activation was inactive: 10.8% and inactive: 2.05%.

On to `CCOc1ccccc1N1CC(c2nc3ccccc3n2CCOc2ccccc2)CC1=O` (centres undefined), for which the activation is inactive: 0.107%.

In the case of `CCc1cccc(NC(=O)Cn2c(=O)ccc3cc(S(=O)(=O)N4CCC(C)CC4)ccc32)c1`, the activation is inactive: 12.2%.

Regarding `CCc1ccc(CNc2ncnc3c2nc2n3CCCC2)cc1`, the activation was inactive: -4.72%.

Turning to `Cc1cc(C)c2c(CC(=O)N3CCN(c4cccc(Cl)c4)CC3)coc2c1`, the activation is inactive: -34.4%.

Turning to `CC1CCc2nc3ncn(Cc4ccccc4C#N)c(=O)c3cc2C1` (centres undefined), the activation is inactive: -18.8%.

Regarding `COc1cccc(N2CCN(C(=O)c3ccc(Cn4c(=O)[nH]c5cc(OC)c(OC)cc5c4=O)cc3)CC2)c1`, the activation was inactive: -1.66%.

Turning to `COc1ccc(C(CNC(=O)c2oc3ccc(Cl)cc3c2C)N2CCCCC2)cc1` (centres undefined), the activation was inactive: 1.95%.

Regarding `CCCC(=O)N(c1ccc2oc3c(c2c1)CCCC3)S(=O)(=O)c1cc(C)ccc1C`, the activation was inactive: -13%.

Take `O=C1CC(c2nc3ccccc3[nH]2)CN1c1cccc(Cl)c1` (centres undefined): the activation is inactive: 24.3%.

`Nc1nnc2c(n1)[nH]c1ccccc12`: the activation was inactive: 18.2%.

As for `COc1cccc(CSc2nc3cc(C(=O)NC4CCCC4)ccc3c(=O)n2Cc2ccccc2)c1`, the activation is inactive: -16.5%.

Regarding `COC(=O)c1ccc(CSc2nc3c([nH]c4ccccc43)c(=O)n2-c2ccc(Cl)cc2)o1`, the activation was inactive: -4.7%.

Regarding `CCCCNc1nc2c(c(=O)n(Cc3ccc(Cl)cc3)c(=O)n2C)n1C`, the activation was inactive: -29.3%.

As for `COc1ccc(CN2CCN(Cc3cc(=O)oc4cc(C)ccc34)CC2)c(OC)c1OC`, the activation was inactive: -5.68%.

With `N#Cc1cc(NC(=O)C(=O)O)c(Cl)c(NC(=O)C(=O)O)c1`, the activation is inactive: -16%.

For the molecule `O=C(CSc1nc2ccccc2n1Cc1ccccc1)N1CCN(c2ccc(F)cc2)CC1`, the activation was inactive: -13.4%.

Take `COc1ccc(-n2cc(C(=O)NCc3ccccc3)c3ccccc3c2=O)cc1`: the activation was inactive: -7.19%.

For the molecule `Cc1cc(Cl)ccc1NC(=O)c1cc(S(=O)(=O)N2CCOCC2)cn1C`, the activation is inactive: -5.55%.

For `CCC(=O)N1CCc2cc(Br)cc(S(=O)(=O)Nc3ccc(C)cc3C)c21`, the activation was inactive: -6.32%.

In the case of `COc1ccc(CC(=O)N2CCc3cc(OC)c(OC)cc3C2COc2ccc(OC)cc2)cc1` (centres undefined), the activation is inactive: -4.32%.

For `CCN(C(=O)c1cc2c(s1)-c1c(C)cccc1OC2)c1ccccc1F`, the activation was inactive: -10.7%.

On to `CCc1cc(=O)oc2c3c(c(Cl)cc12)OCN(Cc1cccc(OC)c1)C3`, for which the activation was inactive: -37.2%.
